Results as given in the supplement of paper PMC11417369.
Some of the results follow.

tested on: PfSIP2 AP2 domain 1 (GST-tagged); assay: gcPBM binding intensity (ln(normalized median fluorescence intensity)); higher = stronger DNA binding
Method in brief: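 In this array assay, P. falciparum DNA-binding domains with a GST tag, expressed in E. coli, were applied for 1 h to primer-extended double-stranded 36-bp intergenic genomic probes and negative controls on an Agilent 4 × 180k array. Bound protein was visualised with Alexa488 anti-GST antibody at 488 nm. Binding intensity is the highest Masliner-normalised natural-log median intensity across replicate spots of either probe orientation.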

Sequence | gcPBM binding intensity (ln)
TATAAAATAAATTGTGCACACATATTTATAAATATG [CACACA_site2330] | 9.39
TATATGGAAAATTAAAGTACTAAAGAATAAATAGAA [XGTACX_site8796] | 7.2
TATAGATACATATACACACACACACCGACATATATA [CACACA_site9138] | 7.11
AATAATAGAAGCACCCACCCACCACCACCCACACAT [CACACA_negctrl_site1033] | 8.5
GAGAAACTTGTTTAAACATGCACAAAAAAAAAAAAA [TGCATGCA_site340] | 7.12
ACGATGAATATGTAAAGTACGCAAATGTAACAATAT [XGTACX_site728] | 7.19
GTAGTTACATATAGGGTGCTCCAATAGTTGACCTCG | 8.76
AAATAAAAAAAGGGAACATGCAATATGTACAAATAT [TGCATGCA_site869] | 7.01
TCATAGGTTCAAAAGGGTACATTAATACATACATAT [XGTACX_site2236] | 6.95
AGCATTTTTCATTTTGCACACATGTTTTATGGGTAT [CACACA_site5839] | 7.48
CATATATATTGATATGCACACCTATGTATTGATGTA [CACACA_site8269] | 8.47
TCTTTTTTCTTTTTTTCACACATTATTTTTTAAATA [CACACA_site5197] | 7.22
AGCTGAAAAAAAAGCTTGCACACGTATTTGCTTTAT [CACACA_site1512] | 6.87
CATATTATATTCTGCTTACACACATATATATATATA [CACACA_site3059] | 9.09
TTTTTTTGTTATATCCTGCACTTCTTAACTATATTA [GTGCAC_site9807] | 8.45
AATAATAAGAATAACGCATGCACATATAATATAGAA [TGCATGCA_site3] | 7.37
AATATGTAGTAATCAAGTACTAATGTCTTAATTCGG [XGTACX_site308] | 6.83
GTTTTTTATATAAGGTGGTCAACATTGTAATGTTAA [XGTACX_site3204] | 7.37
AAATTACACATCCATACACACATATTTTTTTTAATT [CACACA_site5242] | 7.02
ATATAAATTGGCAATAGTACATAAAGGCATAGAAAG [XGTACX_site2674] | 7.31
GTATATATGTATATGTGTACACATATTCTTAACTCA [XGTACX_site309] | 7.11
TTAACAAATAAACACACACACACACCCAAAAAAAAA [CACACA_site8068] | 7.11

Sequence | gcPBM binding intensity (ln)
ATAAAAAAAAAAACAGTAAAATTATAATTATAATTA [TGCATGCA_negctrl_site356] | 6.95
TAATGATAAATACATACACACAAAAAATGATATATA [CACACA_site7258] | 6.86
TATATCCCTTAGAATACACACCCATATGAGTGTGAA [CACACA_site8965] | 6.7
AATGTAAAATCTTCATATACATTTAAGTCTGTATTT [TGCATGCA_negctrl_site183] | 6.74
ACAAAAATTAAATAAAGTACATTTTTAAAATACGTA [XGTACX_site3880] | 6.8
AAAAGCACAAAAAATACACACACAAAAAATAAAAAA [CACACA_site8545] | 6.95
TAAGACAATAAATGCTGTACAATTGAATATCTTGGA [XGTACX_site636] | 6.65
TTATAAAAATTTAGTTGTACATGTCAAATTATCAAT [XGTACX_site7229] | 6.92
TATTTTATTATTATTATTTCTTTATAGTGTATTCTA [CACACA_negctrl_site517] | 6.67
TTTTCGTAACTGATTCAACACACAAAAGGGGGAAAA [CACACA_site8517] | 8.07
AATATATAGCTAAAAACACACAAATATATACACATA [CACACA_site9203] | 6.99
TATTTTATTATTATTATTAGTATGATTTCTTTATAG [CACACA_negctrl_site550] | 6.64
GGATAGGCATAACATAGTACGTACAAATATATATAT [XGTACX_site454] | 8.38
TTTTTTGTACCAAAAAAAAAAAAAAGAAAAAAAAAC [CACACA_negctrl_site1416] | 7.13
AATGTGTTTTTTTTTTTTTTTTTTTTCAATCTCTAT [CACACA_negctrl_site794] | 6.68
GAAAAAAGAAAAAAAAGTACACACATGTATATTAAT [XGTACX_site5265] | 7.03
AATGTACACCCACCCACACACAAACAAATATATATA [CACACA_site5521] | 7.62
TTTTTGTTTGAACACTGTACGTATAAATATAAAAGT [XGTACX_site6476] | 7.89
TTATATTATGTTCAATCAAAAATTATTTTTAAAAAA [XGTACX_negctrl_site595] | 6.97
TATATATAAAAACACACACACACACCCTATAATTAT [CACACA_site4063] | 7.08
TTTCAAATTTAATACACACACAAGTATATATTTATC [CACACA_site3947] | 6.94
TTGTGTTATCACACGAAGGGGATAAGACATAAATGT [TGCATGCA_negctrl_site368] | 6.92

Sequence | gcPBM binding intensity (ln)
TATTTATTGTGACACTTATATTATTTTATGATTAAA [CACACA_negctrl_site525] | 6.94
AATAATACATCCTTAGTGCAGAAATAAAAATTAAGC [GTGCAC_site9955] | 8
TTTTCATTTGTGACAGTGCAAAATGTTATATTAAAA [GTGCAC_site9647] | 8.57
TATAAAATGATGATATGTACTTATGTAGTTTTTTTA [XGTACX_site8711] | 6.74
AATATATGGTTTCATGATATTAAATTCAAAATAATG [CACACA_negctrl_site318] | 6.75
TGTATACATTCTGAATGTACGGAACACCTCATAACT [XGTACX_site7240] | 6.94
TTTGTAATAAATAAGAGTACAAGTATGGTTCCACTA [XGTACX_site2579] | 7.01
AAAAAAAAAAAAAACACACACATATAAATATAAATA [CACACA_site6972] | 7.12
TGGAACCTTTAAAATACACACCCAAATCCTTTGAAA [CACACA_site7671] | 6.62
ATTATTTGAAACTATTGTACATTTAAAAACATTTTT [XGTACX_site4896] | 7.2
ATTGGACTATAAATAGGTACACATATATATATATAT [XGTACX_site7562] | 9.63
TCATATATTCAAAAATTTAAAGTTAATAAAACTTGA [CACACA_negctrl_site1546] | 6.58
ATATGAAAAAGAACTTGTACTAAAGTGGCATATTAT [XGTACX_site8520] | 7.16
CATATATATTTTATTTGTACGTATAAAAAAACAAAA [XGTACX_site4253] | 7.51
TAAATACTTGTATATAGTACAAGTTGTTTTTTTTAA [XGTACX_site5643] | 6.65
TATATATATTATATATGTACATATATTTTTTTTTTT [XGTACX_site127] | 7.5
ATTTATATTACAAAAAGTACACACATAAATAAATAC [XGTACX_site1827] | 7.48
TATTAATCATATAAATGTACGTATATATATTTTTCT [XGTACX_site1421] | 7.07
ATATATATATATATAACACACGTGTATATATATGTA [CACACA_site3644] | 9.34
TATAATATATTATAACGTACAAATATATATATAAAA [XGTACX_site6581] | 6.98
CAATCATAGAAAAACAGTACGTGTAGCAAACATCCT [XGTACX_site4889] | 6.69
AAAAAAAAAAAATATATATATATATATATATATATA [CACACA_negctrl_site1606] | 9.7

Sequence | gcPBM binding intensity (ln)
AAAATCTAGGTATTTATACACACTAAAATAATATAC [CACACA_site623] | 7.03
CAAATACAGAAACACACACACATATACATATATATA [CACACA_site3498] | 7.55
TATATATATATATGGGGTACAAATGGTCAGTATTAT [XGTACX_site1223] | 9.5
ATGTTATTAAAAAAGGGTACACATCTTTTATGTTAA [XGTACX_site812] | 7.01
TTTAAATATAATTGGAGTACTTATAATATATATATA [XGTACX_site7247] | 8.8
ATTACACATATAGTAGTGCAATAACTCCAAAAAAAA | 8.48
AATATGTAATAGTGTACACATATATCTGTATTTATG [CACACA_site4252] | 7.15
AAAAAGGGTATTATTACACACACGTAAATATTAAGA [CACACA_site4233] | 6.88
GAAAATATAAAAAAAAGTACATTTTCTCTAAATATA [XGTACX_site2441] | 6.93
AAAAAAAAATTATATACACACATATAAATATATATA [CACACA_site1197] | 7.07
CTATATAATATGAGCACACATAAGATTTGGTGTTAT [CACACA_site744] | 6.89
AAAACAAATAAGTAAACACACATATAAAATCTATAT [CACACA_site7262] | 6.9
CCTATTTATTTATACACACACATATATAAATAAATA [CACACA_site7417] | 7.44
TTATGTAAATGCTTATGTACTTATTACAATATTTTT [XGTACX_site4057] | 6.86
TAAGAATTGAAAAAATGTACACAATATAAAATTGAA [XGTACX_site698] | 6.88
AAAAAGAATAAATAAATAAATAAATATATATATATA [GTGCAC_negctrl_site584] | 9.47
AAAAAGAAAAAAAAATGTACATAAAGTCTAATGATA [XGTACX_site4781] | 6.94
TTTATTACTATGTAAACACACATGCAATATATGTTA [CACACA_site1114] | 6.93
ATATTATATAAATACACACACACATGCATGCACATA [CACACA_site4236] | 9.02
TATATGTTTGAATATACACACAACATATTTATATAT [CACACA_site7832] | 6.9
AAAAAAAAAAAATATGTACACACATATATAATACAT [CACACA_site8473] | 7.24
TTTTTTGTTAAAAGAGTGCAAATTTTTAAAGATTTG [GTGCAC_site9502] | 8.43
